Results taken from PubChem BioAssay AID686979 (National Center for Advancing Translational Sciences (NCATS), 2013).
Screen size: about 420,000 compounds; about 50,000 (12%) were called active. Inconclusive results, whose numbers are uncertain, are shown with a selection of clear calls. Calls follow the shape of the dose curve; as a rule, active = well fitted inhibition curve with a large enough effect; inconclusive = small, poorly fitted or top-dose-only effect; inactive = flat fitted curve, though single readings scatter. No potency is given beside an inconclusive call; the fits are too rough.

Assay: qHTS for Inhibitors of human tyrosyl-DNA phosphodiesterase 1 (TDP1): qHTS in cells in presence of CPT; also: nearly all actives have a fitted effect of over 55% in size
Conditions: chicken DT40 Tdp1-/-;hTDP1 cells + 20 nM CPT, ATP luminescence, 48 h; activity change, negative = growth inhibition: at 46.2 µM (top of the series) unless noted
Method in brief: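 Chicken DT40 Tdp1-/- cells complemented with human TDP1, 400 cells/well, exposed to compounds plus 20 nM camptothecin for at least 48 h at 37 C; viability read as ATP content by CellTiter-Glo luminescence.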
% is scaled to controls: 0 for no effect and ±100 for the full control effect; potency is read from the fitted curve at half-maximal effect; tags tell the direction and shape of the fitted curve.

| Compound | Potency | activity change, negative = growth inhibition |
| --- | --- | --- |
| Cc1ccc(NS(=O)(=O)c2ccc(C(=O)NCC(c3ccco3)N(C)C)cc2)cc1 (stereo unspecified) | inconclusive [inhibitor, single point] | – |
| Cc1ccc(NC(=O)c2c(C)nc3sc(C(=O)NC4CCCC4)c(N)c3c2-c2ccco2)c(C)c1 | active: 2.91 µM | – |
| CC1CCc2c(sc(N)c2C(=O)OC(C)C)C1 (stereo unspecified) | – | inconclusive: -31.2% [inhibitor] |
| COc1ccc(C(=O)NCCNc2nc3ccc(C)cc3cc2C#N)cc1OC | – | inactive: -22.1% |
| Cc1cccc(N=C2NC(=O)S/C2=C\c2ccco2)c1 | inconclusive [inhibitor, single point] | – |
| COc1ccc(NC(=O)c2ncoc2-c2ccco2)cc1Cl | – | inactive: -2.76% |
| CC(CNC(=O)c1ccc2nc(CCc3ccccc3)oc2c1)c1ccccc1 (stereo unspecified) | – | inactive: -25.2% |
| Cc1cccc(NC(=O)C2CCCN(S(=O)(=O)c3cccc4nsnc34)C2)c1 (stereo unspecified) | inconclusive [inhibitor, single point] | – |
| Cc1cccc(C(=O)Nc2ccc3nc(SCC(=O)N4CCc5ccccc54)sc3c2)c1 | active: 5.8 µM | – |
| CCN(CC)CCN(C(=O)C1CCCCC1)c1nc2cc3c(cc2s1)OCO3 | inconclusive [inhibitor, single point] | – |
| COc1ccc(OC)c(-c2nnc3n(CCc4ccccc4)c(=O)c4ccccc4n23)c1 | active: 8.2 µM | – |
| CC(OC(=O)C1CC2CCCC(C1)C2=O)C(=O)Nc1cccc([N+](=O)[O-])c1 (stereo unspecified) | inconclusive [inhibitor, single point] | – |
| O=C1NC(c2ccc(-c3ccccc3[N+](=O)[O-])o2)C(C(=O)c2ccccc2)C(O)(C(F)(F)F)N1 (stereo unspecified) | inconclusive [inhibitor, single point] | – |
| CNCCCCc1cnc(C)c2[nH]c3ccccc3c12 | – | inactive: 6.54% [at 9.04 µM] |
| C=CCn1c(SCC(=O)Nc2cc(C)on2)nnc1-c1ccncc1 | – | inactive: 0.275% |
| Cc1ccc(NC(=O)N(Cc2ccco2)C(C)c2ccco2)cc1C (stereo unspecified) | inconclusive [inhibitor, single point] | – |
| COC(=O)c1ccc(NC(=S)Nc2ccccc2)cc1 | inconclusive [inhibitor, single point] | – |
| Cc1nc(N)nc(C)c1Cc1ccccc1 | – | inactive: -7.19% |
| COc1ccccc1NS(=O)(=O)/C=C/c1ccccc1 | inconclusive [inhibitor, single point] | – |
| Cc1cc(=O)cc(C)n1-c1ccccc1Br | – | inactive: -12.1% |
| CCN(CC1COc2ccccc2O1)C(=O)CN1C(=O)NC(C)(c2ccc(C)cc2)C1=O (stereo unspecified) | inconclusive [inhibitor, single point] | – |
